The values that follow come from PMC9574860, “Chemical Toolkit for PARK7: Potent, Selective, and High-Throughput” (Journal of Medicinal Chemistry, 2022).

The structures appear in SMILES notation. About 400 (5.1%) of roughly 7,900 compounds showed an effect of 50% or more. The list shows a part of the results.

This assay deals with Parkinson's disease protein 7 (PARK7/DJ1) (human, UniProt Q99497). Nature of the assay: primary screen, percent inhibition; read as competition with a fluorescent probe by fluorescence polarization; higher = more effect of the substance. As to conditions: 100 µM. Put shortly: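 Covalent fragments at 100 μM final were incubated 2 h with 0.2 μM PARK7, then 20 nM probe JYQ-107 added for a further 2 h. Fluorescence polarization read at 480/520 nm; relative FP loss versus reference controls gave remaining enzyme activity.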
Sequence of Parkinson's disease protein 7 (PARK7/DJ1) (Q99497 whole entry, looked up, the tested form may be a part): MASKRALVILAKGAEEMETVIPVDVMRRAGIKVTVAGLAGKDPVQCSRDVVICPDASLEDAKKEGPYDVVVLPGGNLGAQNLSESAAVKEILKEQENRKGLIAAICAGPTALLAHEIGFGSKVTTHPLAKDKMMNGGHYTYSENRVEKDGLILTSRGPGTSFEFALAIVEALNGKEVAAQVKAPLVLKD
Regarding `Cc1ccc([N+](=O)[O-])cc1NC(=O)CCl`, the Inhibition % was determined as 18.4%.

For the compound `O=C1CCC(=O)N1CCN1CCSC2(CCCCC2)C1`, the Inhibition % came to 6.74%.

Turning to `C=CC(=O)Nc1cnc(C)s1`, the Inhibition % is on record as 16.4%.

`CCc1nc(C)cn1S(=O)(=O)c1ccc(OC)c(C)c1`: the Inhibition % is on record as -0.95%.

Regarding `C=CC(=O)NCC1CCC(F)CC1` (stereo not drawn), the Inhibition % was 1.56%.

For the compound `N#CC(=Cc1ccc(O)cc1)C(N)=S`, the Inhibition % turned out to be 5.65%.

`C=CC(=O)N1CC(C)OC2(CCOCC2)C1` (stereo not drawn): the Inhibition % stood at 10.9%.

With `CC1(C)OB(c2ccc3c(c2)C(=O)NC3)OC1(C)C`, the Inhibition % is 7.34%.

`O=C(NCc1ncccc1F)c1cccnc1S`: the Inhibition % worked out at 21%.

For `CC1(C)OB(c2cccc(CN3CCOCC3)c2)OC1(C)C.Cl`, the Inhibition % came out at 25.8%.

In the case of `C=CC(=O)N1CCCC1c1ccccc1Cl` (stereo not drawn), the Inhibition % is 7.15%.

Turning to `Cc1cc(C)n(-c2ccc(C#N)nc2)n1`, the Inhibition % was 2.91%.

Take `Cc1cccc(NC(=O)N[C@@H]2COC(=O)C2)n1`: the Inhibition % was 11.7%.

For `N#Cc1ncc(C(F)(F)F)cc1N`, the Inhibition % was determined as 2.37%.

For the compound `COc1cccc(N2CCN(C(=O)n3ccnc3)CC2)c1`, the Inhibition % was determined as 8.28%.

Consider `Cc1nn(C)c(C)c1NS(=O)(=O)C=Cc1ccccc1`, for which the Inhibition % amounted to 10.9%.

`C=CC(=O)N(C)C1CCN(S(C)(=O)=O)CC1`: the Inhibition % amounted to 5.7%.

Regarding `C=CS(=O)(=O)c1ccccn1`, the Inhibition % came to 3.22%.

Take `CC(=O)N(C)c1cccc(NC2CC(C)OC2=O)c1` (stereo not drawn): the Inhibition % is given as 32.1%.

Take `O=C(CC1COC(=O)C1)Nc1ccc2nc(S)[nH]c2c1` (stereo not drawn): the Inhibition % stood at 2.61%.

Turning to `C=CC(=O)NC1CCN(c2ccc(F)c(Cl)c2)C1=O` (stereo not drawn), the Inhibition % was found to be 8.7%.

On to `CS(=O)(=O)C(C#N)=Cc1ccccc1Cl`, for which the Inhibition % is recorded as 5.36%.

Consider `N#Cc1ncc(C(F)(F)F)cc1Cl`, for which the Inhibition % is 1.83%.

Regarding `COC(=O)c1ccc(B2OC(C)(C)C(C)(C)O2)c(O)c1`, the Inhibition % was 6.79%.

With `CN(Cc1cccs1)C(=O)CCl`, the Inhibition % worked out at 36.6%.

As for `N#CC(=Cc1ccncc1)c1ccccn1`, the Inhibition % is listed as 4.53%.

`O=C(CCl)c1cc2c3c(c1)CC(=O)N3CCC2`: the Inhibition % worked out at 21.1%.

`C=CC(=O)N1CCCC1c1ccc(C)s1` (stereo not drawn): the Inhibition % turned out to be 5.49%.

With `O=C(CCCl)Nc1ccc2c(c1)OCO2`, the Inhibition % is recorded as 13.1%.

Regarding `O=C(CCl)NC(c1ccccc1)C1CC1` (stereo not drawn), the Inhibition % was -0.171%.

Take `Cc1nnnn1CCCCl`: the Inhibition % was determined as 13.3%.

Consider `Cn1cc(C=CC(=O)N2CCc3ccccc32)cn1`, for which the Inhibition % was 3.76%.

Regarding `C=CC(=O)Nc1ccc2nc(C(F)(F)F)oc2c1`, the Inhibition % is 20.1%.

Turning to `C=CC(=O)NC1CCCn2nccc21` (stereo not drawn), the Inhibition % worked out at 6.55%.

For `Cc1csc2nc(S)n(C)c(=O)c12`, the Inhibition % is 2.7%.

Consider `N#Cc1c(NC(=O)c2ccncc2)nc2n1CCS2`, for which the Inhibition % is reported as 15%.

On to `CC1CCCC(NC(=O)CCl)C1C` (stereo not drawn), for which the Inhibition % is recorded as 10.4%.

Consider `C=CC(=O)Nc1ccc([N+](=O)[O-])cc1`, for which the Inhibition % is given as 9.19%.

Take `C=CC(=O)NC1(c2ccc(S(C)(=O)=O)cc2)CCOC1` (stereo not drawn): the Inhibition % came to 3.23%.

As to `COc1ccccc1COCC1CO1` (stereo not drawn), the Inhibition % is listed as 4.72%.

With `Cc1nn(C)c(C)c1C=CC(=O)N1CCC(C(N)=O)CC1`, the Inhibition % came to 10.7%.

With `CN(C)C(CNC(=O)CCl)c1ccccc1.Cl` (stereo not drawn), the Inhibition % amounted to 5.25%.

For the compound `C=CC(=O)N1CCN(c2ccccc2F)CC1`, the Inhibition % came out at 7.53%.

Consider `CNC(=O)C(C#N)=Cc1cccc(Oc2ccccc2)c1`, for which the Inhibition % is listed as 13.7%.

For the compound `NC(=O)C1CCN(C(=O)CCl)CC1`, the Inhibition % was 11.7%.

For the compound `Cn1nncc1B1OC(C)(C)C(C)(C)O1`, the Inhibition % was 6.79%.

For `O=C(CCl)NCc1cnn(-c2ccccc2)c1`, the Inhibition % is recorded as 4.13%.

As to `Cc1ccc(F)c(N(C#N)CCCO)c1`, the Inhibition % is on record as 4.94%.

For the compound `CC1CN(C2CCOC2=O)CCN1c1nccs1` (stereo not drawn), the Inhibition % turned out to be 19.4%.

As for `O=C1CCc2cc(C(=O)CCl)ccc2N1`, the Inhibition % is 52.8%.

With `O=C(CCl)Nc1ccc(Br)cc1`, the Inhibition % stood at 70.1%.

In the case of `Cc1cc(C)n(CC2CCCN2C2CC(C)OC2=O)n1` (stereo not drawn), the Inhibition % was -2.43%.

Consider `CCc1cccc2c(C=C(C#N)C(=O)NC)c[nH]c12`, for which the Inhibition % is reported as 10.4%.

Take `Cc1cc(C)n(S(=O)(=O)c2ccc(Cl)cc2Cl)n1`: the Inhibition % is given as 29.5%.

For the compound `COc1cc(C)c(Cl)cc1S(=O)(=O)n1cccn1`, the Inhibition % is reported as 8.92%.

Consider `O=c1c2ccccc2nc(S)n1CCC1=CCOCC1`, for which the Inhibition % was 6.89%.

Consider `OB(O)c1ccc(OC2CCOC2)cc1` (stereo not drawn), for which the Inhibition % stood at 10.3%.

`CCCC(=O)Nc1ccc(C(=O)CCl)cc1`: the Inhibition % is reported as 5.21%.

Take `Cc1nn(C)c(C)c1C=CC(=O)N1CCCC(C)C1` (stereo not drawn): the Inhibition % was 7.8%.

As for `Cc1ccc(C(=O)CCl)s1`, the Inhibition % is 28.1%.

Take `C=CC(=O)Nc1ccc2c(c1)N(C)CCO2`: the Inhibition % is 52.4%.

For `C=CC(=O)N1CCCc2cc(C(=O)O)ccc21`, the Inhibition % is on record as 7.5%.

For the compound `O=C(NCCC(=O)N1CCCCC1)c1cc(S(=O)(=O)F)c[nH]1`, the Inhibition % came out at 5.43%.

With `C=CC(=O)N1CCC2(CC1)C(C)=Nc1ccccc12`, the Inhibition % worked out at 10%.

With `C=CC(=O)Nc1ccc(N2CCCC2)cc1C`, the Inhibition % is recorded as 6.37%.

On to `C=CC(=O)NCCCC(=O)N1CCc2sccc2C1`, for which the Inhibition % was 10.7%.

With `C=CC(=O)Nc1cc(OC(F)F)n(C)n1`, the Inhibition % came to 2.26%.

Take `CNc1ccc(B2OC(C)(C)C(C)(C)O2)cc1`: the Inhibition % was 12.5%.

Consider `NC(=O)CN1Cc2ccccc2OC1=O`, for which the Inhibition % was 9.81%.

For `O=C(CCl)Nc1cc2ccccc2cc1C(=O)O`, the Inhibition % is on record as 66.3%.

Take `CC1CCCCN1C(=O)C=Cc1cnc2ccccc2n1` (stereo not drawn): the Inhibition % was 6.48%.

Turning to `O=C(CCl)NC(c1ccc(F)cc1)c1cccs1` (stereo not drawn), the Inhibition % is on record as 6.01%.

In the case of `C=CS(=O)(=O)c1ccc(C#N)cn1`, the Inhibition % is given as 1.18%.

Take `C=CC(=O)NCC1CCC2(CC1)CC2`: the Inhibition % came out at 2.8%.

On to `C=CC(=O)NC1(c2cccc(Cl)c2)CC1`, for which the Inhibition % is given as 8.64%.

Turning to `CC1(C)OB(c2cnc3c(c2)CC(=O)N3)OC1(C)C`, the Inhibition % is 18.8%.

Turning to `Cc1ncsc1C=C(C#N)C(=O)NC(C)c1ccccc1` (stereo not drawn), the Inhibition % worked out at 28%.

Turning to `CCC1(c2ccccc2)NC(=O)N(NC(=O)CCl)C1=O` (stereo not drawn), the Inhibition % is 6.48%.

With `O=C(CCl)c1c[nH]c(C(=O)N2CCCC2)c1`, the Inhibition % is 1.55%.

For the compound `N=C1NC(=O)SC1=Cc1ccc(Cl)cc1`, the Inhibition % is given as -2.92%.

For the compound `CC1(C)OB(c2cc3cccnc3s2)OC1(C)C`, the Inhibition % worked out at 3.67%.

As for `CC1CC(N2CCN(C(=O)c3ccco3)CC2)C(=O)O1` (stereo not drawn), the Inhibition % was 2.84%.

As for `Cc1csc(C(C#N)=Cc2cccnc2)n1`, the Inhibition % is on record as 3.31%.

As to `N#CC(=Cc1ccc(-n2cncn2)cc1)c1ccccn1`, the Inhibition % was 18.7%.

As to `O=S(=O)(F)c1ccc(Cl)cc1`, the Inhibition % amounted to 27%.

For the compound `N#CC(=Cc1ccco1)C(N)=S`, the Inhibition % is reported as 4.62%.

On to `Cl.O=C(CN1CCN(C(=O)CCl)CC1)Nc1ccc(F)cc1`, for which the Inhibition % turned out to be 29.5%.

Consider `C=CC(=O)NC1CSCC1C` (stereo not drawn), for which the Inhibition % is listed as 15.9%.

Consider `C=CC(=O)N1CCS(=O)(=O)C2CCCC21` (stereo not drawn), for which the Inhibition % is reported as 9.67%.

`CC(C)(C)c1ccccc1NC(=O)Cn1cnc(C#N)n1`: the Inhibition % is reported as 7.34%.

On to `O=C1c2ccccc2C(=O)N1CC1CO1` (stereo not drawn), for which the Inhibition % was 3.59%.

For `C=CC(=O)Nc1cccc(-c2ccc3c(c2)OCCO3)n1`, the Inhibition % came out at 10.5%.

With `O=C1CC2(CCNCC2)N1`, the Inhibition % is listed as 3.72%.

Consider `CC(=O)NC1CCCN(C(=O)CCl)C1` (stereo not drawn), for which the Inhibition % is 17.8%.

On to `Clc1ccc(OCC2CO2)cc1Cl` (stereo not drawn), for which the Inhibition % is given as 7.16%.

In the case of `C=CC(=O)N1CCC(OC2CCOC2)CC1` (stereo not drawn), the Inhibition % turned out to be 3.79%.

As for `C=CC(=O)N1CCCC(Oc2ccc(Cl)cn2)C1` (stereo not drawn), the Inhibition % is given as 6.49%.

Turning to `Cc1cc(C)n2nc(SCC3CCC(=O)O3)nc2n1` (stereo not drawn), the Inhibition % was found to be 8.44%.

Turning to `Cc1cnc(C#N)s1`, the Inhibition % is 4.36%.

In the case of `Cn1cc(S(=O)(=O)F)c(N)n1`, the Inhibition % is given as 7.95%.

Consider `C=CC(=O)NC(C)(C)c1cnn(C)c1`, for which the Inhibition % came out at 3.17%.

As to `Cc1cc2ncn(C(=O)N3CCCC3)c2cc1C`, the Inhibition % was determined as 11.5%.

In the case of `N#CC(=Cc1ccncc1)C(=O)NCc1ccco1`, the Inhibition % stood at 14.7%.

For `O=C1NC(c2cccnc2)C12CCC2` (stereo not drawn), the Inhibition % turned out to be 3.72%.

Turning to `COCC(C)NC(=O)C(C#N)=Cc1ccc(F)c(C)c1` (stereo not drawn), the Inhibition % is 5.47%.

On to `COC1C=CS(=O)(=O)C1` (stereo not drawn), for which the Inhibition % came out at 4.95%.

For the compound `O=c1c2cccnc2nc(S)n1C1CC1`, the Inhibition % is 7.8%.

On to `CCn1nc(C)c(C(=O)Nc2cccc(S(=O)(=O)F)c2)c1Cl`, for which the Inhibition % is recorded as 8.14%.

For `CNC(=O)c1cccc(CN2C(=O)CSC2=O)c1`, the Inhibition % turned out to be 10.4%.

As for `N#Cc1ncn(CC(=O)Nc2cccc(F)c2)n1`, the Inhibition % was found to be 7.22%.

As to `CC1(C2CC2)CCN(c2cncc(C#N)n2)CC1`, the Inhibition % came to 6.7%.

Take `NC(=S)c1cccnc1S`: the Inhibition % turned out to be 7.34%.

Consider `O=c1[nH]c(S)nnc1-c1ccccc1`, for which the Inhibition % was 6.07%.

`FC(F)(F)c1cnc(S)c(Cl)c1`: the Inhibition % is 5.52%.

With `C=CC(=O)NCc1cc2n(n1)CCC2`, the Inhibition % came out at 10.7%.

As for `C=CC(=O)N1CCC(C)(c2cccc(F)c2)C1` (stereo not drawn), the Inhibition % worked out at 4.56%.

As to `C=CC(=O)N1CC(C)OC2(CCOC(C)C2)C1` (stereo not drawn), the Inhibition % is 9.19%.

Take `Cn1cccc1C(=O)CCl`: the Inhibition % is 8.03%.

For the compound `C=CCNC(=O)C(C#N)=Cc1cccc(O)c1`, the Inhibition % was 4.34%.

Consider `CCN1CCN(c2oc(-c3ccco3)nc2C#N)CC1`, for which the Inhibition % is 9.73%.

As to `C=CC(=O)NC1CCCC1(F)F` (stereo not drawn), the Inhibition % stood at 8.23%.

Take `C=CC(=O)N1CCCCC(S(C)(=O)=O)C1` (stereo not drawn): the Inhibition % is 8.81%.

As to `C=CC(=O)N1C[C@]2(C)COC[C@]2(C)C1`, the Inhibition % is reported as 9.62%.

With `CC(c1ccccc1)N1CCN(C(=O)CCl)CC1.Cl` (stereo not drawn), the Inhibition % is recorded as 4.62%.

With `O=C1OCCC1Sc1ncnc2ccccc12` (stereo not drawn), the Inhibition % was found to be 54.5%.

As for `COc1ccc(C=C(C#N)c2nc(C)cs2)cc1O`, the Inhibition % was 33.2%.
